Experimental findings from PubChem BioAssay AID485344 (National Center for Advancing Translational Sciences (NCATS), 2010) are described below.

Each structure is given as a SMILES string. Among all 340,000 compounds or so, about 6,900 (2%) were called active. Cut-off read from the data, not from the text of the source: active = inhibition above about 30%; inactive = below that, where a call was filed. This is a selection; strong and weak results do not stand in their true shares. The source gives no active or inactive call for entries shown without one.

This assay deals with D(2) dopamine receptor (Homo sapiens) (UniProt P14416). The assay can be described thus: HTS Assay for Allosteric Antagonists of the Human D2 Dopamine Receptor: Primary Screen for Antagonists. Note: 0% is about no effect. The conditions noted are these: HEK293 TREx D2 cells, calcium flux, dopamine EC80; at 10 µM; stronger effect = higher value. Put shortly: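 Inhibition of EC80 dopamine-driven calcium flux, recorded kinetically, defines activity here; cells are a tetracycline-induced HEK293 T-REx line expressing force-coupled D2.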
UniProt P14416, sequence (P14416 whole entry, looked up): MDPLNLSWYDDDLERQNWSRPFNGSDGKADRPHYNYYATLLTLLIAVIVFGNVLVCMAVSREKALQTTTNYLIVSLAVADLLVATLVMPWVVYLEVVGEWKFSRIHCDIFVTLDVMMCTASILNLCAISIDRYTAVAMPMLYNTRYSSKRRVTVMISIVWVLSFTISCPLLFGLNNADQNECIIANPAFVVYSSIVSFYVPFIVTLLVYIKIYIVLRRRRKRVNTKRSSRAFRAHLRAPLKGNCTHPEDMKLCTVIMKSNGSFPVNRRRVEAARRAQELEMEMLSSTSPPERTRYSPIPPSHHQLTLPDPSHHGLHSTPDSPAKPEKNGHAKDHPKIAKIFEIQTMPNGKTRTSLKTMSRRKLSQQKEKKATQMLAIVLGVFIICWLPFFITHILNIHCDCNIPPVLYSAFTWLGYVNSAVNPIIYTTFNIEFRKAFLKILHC
With `Cn1c(=O)c2c(SCC(=O)Nc3ccccc3C(F)(F)F)nc(C3CCCC3)nc2n(C)c1=O`, the inhibition came out at 8.52%.

Regarding `COc1ccc(-c2cc(C)no2)cc1S(=O)(=O)N1CCc2ccccc21`, the inhibition was 3.84%.

Take `Cc1ccc(CN(C(=O)c2ccccc2)c2ccccn2)o1`: the inhibition came out at 20.9%.

`O=C(O)CCCCn1c(SCC(=O)Nc2ccccc2C(F)(F)F)nc2ccsc2c1=O`: the inhibition is -25.8%.

As to `CCCCn1cc(S(=O)(=O)c2ccc(OC)cc2)c(=O)c2cc(CC)ccc21`, the inhibition came out at 0.248%.

`CNC(=O)C1CCC(Cn2c(=O)c3sccc3n(CC(=O)Nc3ccc(C)c(C)c3)c2=O)CC1` (centres undefined): the inhibition is 5.66%.

Take `COc1ccc(CCNC(=O)C2CCC(CNS(=O)(=O)c3ccc(C)cc3)CC2)cc1OC` (centres undefined): the inhibition was 17.8%.

`CCOCCCn1c(SCC(=O)OCC)nc2c(sc3ccccc32)c1=O`: the inhibition was -21.9%.

`COCCNC(=O)CSc1nc(-c2cc(OC)c(OC)c(OC)c2)[nH]c1-c1ccc(Cl)cc1`: the inhibition worked out at 18.5%.

Take `Cc1cccc(C(C)C)c1NC(=O)C1CCCN1S(=O)(=O)c1cccc2nsnc12` (centres undefined): the inhibition was -7.87%.

For `CCOc1cccc(N2C(=O)CC(NNC(=O)c3ccc(Br)o3)C2=O)c1` (centres undefined), the inhibition is active: 38.1%.

As to `CCC1CN(C(=O)N2CCC(C(=O)NCCc3ccccc3Cl)CC2)c2cc(C)ccc2O1` (centres undefined), the inhibition was 23.6%.

Turning to `CCCC(O)c1nc2ccccc2n1Cc1ccccc1OC` (centres undefined), the inhibition was found to be 3.62%.

As for `COc1cc(NC(=O)CN2c3ccccc3S(=O)(=O)c3ccccc32)cc(OC)c1`, the inhibition is 11.6%.

Turning to `Cc1ccc(Nc2nnc(-c3ccc(C)c(S(=O)(=O)N4CCN(C)CC4)c3)c3ccccc23)cc1`, the inhibition is -7.49%.

`Cc1ccc(C)c(NC(=O)c2cc(S(=O)(=O)N3CCCc4ccccc43)ccc2F)c1`: the inhibition is -6.37%.

For the compound `CC(C)=N/N=C1/NC(=O)C(CC(=O)Nc2cc(Cl)ccc2C)S1` (centres undefined), the inhibition is active: 46.1%.

Take `CCOC(=O)c1ccc(NS(=O)(=O)c2ccc(-c3cc(C)no3)cc2)cc1`: the inhibition was -0.949%.

As to `Cc1cc(C)c(OCC(=O)N(Cc2ccco2)Cc2ccco2)c(C)c1`, the inhibition amounted to 4.91%.

Regarding `COc1ccc(Cn2ccc3nc(C)c(C(=O)Nc4cc(C)cc(C)c4)cc3c2=O)cc1`, the inhibition was determined as 17.6%.

Take `Cc1nc2ccccc2c(=O)n1-c1ccc(NC(=O)c2cccc([N+](=O)[O-])c2)cc1`: the inhibition is -1.44%.

As to `CSc1ncc(C(=O)Nc2c(C)cccc2C)c(-c2ccccc2)n1`, the inhibition was determined as 15.1%.

Regarding `COc1ccccc1CCNC(=O)c1ccc(-c2nc(CSc3ccc(C)cc3)c(C)o2)cc1`, the inhibition was -1.25%.

`CCCCNC(=O)C(Cc1ccccc1)NS(=O)(=O)c1ccc2c(c1)c(=O)n(C)c(=O)n2C` (centres undefined): the inhibition came to 5.87%.

For the compound `CCn1c(=N)c(C(=O)NCc2ccccc2)cc2c(=O)n3cc(C)ccc3nc21`, the inhibition is 1.2%.

Consider `CCC1CN(C(=O)NCc2ccc(C)cc2)c2ccccc2O1` (centres undefined), for which the inhibition is -18.9%.

Regarding `CC(C)c1ccc(N2C(=O)CS(=O)(=O)C23C(=O)N(Cc2cccc(F)c2)c2ccccc23)cc1` (centres undefined), the inhibition worked out at 13.6%.

For the compound `CCC(C)NC(=O)Cn1ccc2cc(S(=O)(=O)N3CCCCC3)ccc21` (centres undefined), the inhibition stood at 7.71%.

As for `Cc1cccc(N2CCN(C(=O)CN3C(=O)COc4ccc(S(=O)(=O)N5CCCCCC5)cc43)CC2)c1C`, the inhibition is -10.5%.

With `CCCCOc1cccc(C(=O)Nc2cccc(-c3nc4ncccc4o3)c2C)c1`, the inhibition was 11.2%.

Regarding `Cc1ccc(NC(=O)C2CCCN(c3ncnc4onc(-c5ccc(F)cc5)c34)C2)c(Cl)c1` (centres undefined), the inhibition stood at 6.47%.

As for `O=C(CSc1nccn1C1CCCC1)Nc1ccc(C(F)(F)F)cc1`, the inhibition stood at 20.8%.

Take `CC(C)CCN1C(=O)c2ccccc2CC1(C)C(=O)NC1CCC(C)CC1` (centres undefined): the inhibition is -5.27%.

On to `CC(C)c1ccc(-c2nc(C(N)=O)c3c(n2)n(-c2ccc4c(c2)OCO4)c(=O)n3C)cc1`, for which the inhibition is -9.08%.

As for `O=C(Nc1cccc(F)c1)[C@H](CSCc1ccccc1)N1Cc2ccccc2C1=O`, the inhibition was -18.5%.

Consider `CCOc1ccc(NC(=O)Cn2cc(S(=O)(=O)NC)c(S(=O)(=O)NC)c2)cc1`, for which the inhibition is 0.615%.

As for `COc1ccc(NC(=O)C2CCN(S(=O)(=O)c3ccc4[nH]c5c(c4c3)CCCCC5)CC2)cc1`, the inhibition amounted to 3.2%.

For the compound `CCCCCSc1nnc(-c2ccc(Br)cc2)o1`, the inhibition is -12.6%.

For the compound `CC1CCCN(CCCNC(=O)c2coc3nc4ccccc4nc23)C1` (centres undefined), the inhibition was active: 32.6%.

`Cc1ccc(Cl)cc1-n1c(=O)c2sc3ccccc3c2n(Cc2ccccc2)c1=O`: the inhibition stood at 7.12%.

In the case of `CCOc1cc(-c2nnc(SCC(=O)NC3CCCC3)nc2-c2ccc(OC)c(OCC)c2)ccc1OC`, the inhibition was 12.3%.

For `CCOc1ccc(-n2ccnc2SCC(=O)Nc2nc3ccc(C)cc3s2)cc1`, the inhibition was 2.36%.

In the case of `COc1cccc(NC(=O)N2C3CCCC2CC(NC(=O)C2CC2)C3)c1` (centres undefined), the inhibition was active: 34.1%.

For `Cc1nn(-c2ccccc2)c2c1N(CC(=O)N1CCN(c3ccc(F)cc3)CC1)C(=O)CS2`, the inhibition was 3.58%.

For `CC1(C)C(=O)N(CC(=O)Nc2cccc(F)c2)c2ccc(S(=O)(=O)N3CCCCC3)cc21`, the inhibition turned out to be 20.2%.

With `COc1cccc2cc(C(=O)Nc3ccc(F)c(F)c3)c(=O)oc12`, the inhibition amounted to 5.35%.

Take `O=C(Cn1c(=O)n(Cc2cccs2)c(=O)c2cccnc21)Nc1ccc(F)cc1`: the inhibition was 14.7%.

Regarding `CCOc1ccc(NC(=O)Cn2c(=O)n(-c3ccccc3)c(=O)c3ccc(C(=O)NCc4ccc5c(c4)OCO5)cc32)cc1`, the inhibition amounted to 6.15%.

Take `Cc1ccccc1S(=O)(=O)Cc1ccc(C(=O)NC2CCC(C)CC2)o1` (centres undefined): the inhibition is -7.81%.

As to `CC(C)NC(=O)CN1C(=O)C(C)(C)Oc2ccc(C(=O)NC3CCCCC3)cc21`, the inhibition was active: 31.5%.

Take `Cc1ccc(CNC(=O)C2CCN(S(=O)(=O)c3ccc4[nH]c(=O)ccc4c3)CC2)cc1`: the inhibition was -4.35%.

Consider `CCC(C)NC(=O)CSc1nc2cc3c(cc2c(=O)n1CCCCCC(=O)NCc1ccc2c(c1)OCO2)OCO3` (centres undefined), for which the inhibition was found to be 14.7%.

`Cc1cc(-c2ccc(C)c(S(=O)(=O)NCCc3ccc(S(N)(=O)=O)cc3)c2)on1`: the inhibition is -0.284%.

For `CC(C)c1ccc(NS(=O)(=O)c2ccc3[nH]cc(C(=O)NCC4CCCO4)c(=O)c3c2)cc1` (centres undefined), the inhibition is 0.036%.

`CCOc1ccc2nc(N3CCCC(C(=O)Nc4ccc(OC)c(Cl)c4)C3)sc2c1` (centres undefined): the inhibition came out at 1.07%.

For the compound `CCN(CCCC(=O)c1ccc(F)cc1)CCc1ccccc1`, the inhibition is active: 102%.

As for `CN(C)S(=O)(=O)c1ccc2c(c1)N(CC(=O)Nc1ccc(F)cc1)C(=O)CS2`, the inhibition worked out at 2.01%.

Regarding `c1ccc(Cn2nnnc2C(c2cccs2)N2CCSCC2)cc1` (centres undefined), the inhibition was active: 32.9%.

With `Cc1ccc(Cn2c(SCC(=O)NCc3ccccc3Cl)nc3ccsc3c2=O)cc1`, the inhibition is -9.15%.
